The RNAGym collection of RNA variant scans (doi:10.1093/nar/gkz1192)
Read counts are not given, so values of variants with three or more changes are uncertain.

B1: CPEB3 Ribozyme (parent)
chain: UAACAGGGGGCCACAGCAGAAGCGUUCACGUCGCAGCCCCUGUCAGAUUCUGGUGAAUCUGCGAAUUCUGCUGUAUAUCUC

Variants of: B1
Assay: self-cleavage, relative activity (ratio to wild type); higher = more cleavage; in vitro, sequencing
How it was run: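 For each CPEB3 ribozyme variant, relative activity is its cleaved/total read fraction divided by the unmutated ribozyme's. Barcoded error-prone PCR libraries were transcribed by T7 RNA polymerase (5 hours, 37°C) and held in DNase I for 15 min before an EDTA stop, with cleavage occurring throughout. Template-switching reverse transcription and Illumina sequencing were used to read the RNAs. A 5-read minimum applied, and results are the mean of three batches.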

Variant	self-cleavage
U1C G7U C23G U51A U72A	0.1
U1C G7U U51G	0.42
U1C G8U A18G C50A U67C	0.09
U1C G9A U25A U54C	0
U1C G9A U41A A45C	0.05
U1C G9C U51A U78A	0.41
U1C G9U A64U A65U	0.12
U1C G9U C40U U60C U80C	0.27
U1C G9U U26C G55U A64U	0.05
U1C G10A A13G U41C A56G C59U	0.23
U1C G10A A15G A57U U60C	0.07
U1C G10A A35G U60C	0.07
U1C G10C U25C A28G	0.07
U1C G16A U25C C29U U49A	1.02
U1C G19U U78A	0.38
U1C G19U U80A	0.42
U1C G22A A64G	0.27
U1C G24C A65G U66C U69C	0.3
U1C G30C U43C C71G	0.05
U1C G30U U31A A64U U78C	0.05
U1C G33A G42A A57G A77G	0.28
U1C G33U C38U U49A U54C U74C	0.06
U1C G33U U43C U69A	0.07
U1C G36U U60G A64G	0.16

Variant	self-cleavage
U1C G42A A45U U60C	0.09
U1C G46U A65G	0.12
U1C U25A C39A U43C A56G A65G	0.03
U1C U25A U54C	0.37
U1C U25A U74A U76A	0.13
U1C U25A U78C	0.2
U1C U25C A56G	0.58
U1C U25C G33A A47G U76G	0.05
U1C U25C U51A G63A A64C	0.16
U1C U25C U69G	0.21
U1C U25G G53A U60C U66C	0.19
U1C U25G U43C A56U A64G U72A	0.04
U1C U26C A35U U51A G52A C68A U76A	0.04
U1C U26C G33A	0.17
U1C U26C U41C U49C A57G U76A U80C	0.08
U1C U26C U43A	0.45
U1C U26C U43A U51A	0.27
U1C U26C U43C U54A	1
U1C U26C U48C	0.29
U1C U26C U67C G70A U78C	0.16
U1C U31A A57G A65G	0.13
U1C U31A C39U A45U A64U	0.04
U1C U31A U41C A56G C81U	0.32
U1C U31A U48C U51C A65U	0.19

Variant	self-cleavage
U1C U31C U51C U78A	0.24
U1C U41A A57G	0.07
U1C U41A U43C U76A	0.37
U1C U41C A56G	0.76
U1C U41C U54A U58C U67C	0.24
U1C U43A U60A U74C	0.47
U1C U43C A64U U76C	0.2
U1C U48C A77G	0.24
U1C U49C U78C	0.29
U1C U51A U58C G61C U78C	0.28
U1C U51A U67C	0.14
U1C U51C A56C	0.53
U1C U51C A57G U69C U80C	0.31
U1C U54C U67C U80C	0.18
U1C U54C U80G	0.64
U1C U60A U69C	0.18
U1C U60C A64G	0.35
U1C U69C U78A	0.54
U1C U72A U78C	0.66
U1G A2G U41A	0.67
U1G A3G A20G C40U A57G	0.49
U1G A5G A35G U80C	1.12
U1G A5U A13G C34U A35G U66A	0.67
U1G A13U A21U	0.41

Variant	self-cleavage
U1G A13U G22A A35G A45G U54C	0.27
U1G A18G A21U U48G C62U A77G U78C	0.02
U1G A18G U25C U78C	0.48
U1G A18U A56G	0.33
U1G A20G U26C G42A	0.11
U1G A45U U72C U80C	0.7
U1G A47G G73A U78A U80A	1.25
U1G C11G A21G U25A C38A U74A	0.03
U1G C34A A35G U41C U72C	0.76
U1G G8U A20G A35U	0.23
U1G G9U A28G	0.07
U1G U25C U26C G30A	0.42
U1G U26A A35U C40U U72G	0.2
U1G U41C U76C	1.02
U1G U69A C79U	1.05
A2C A3G C17A C40U	1.06
A2C A5G U25C A28G G52A	0.14
A2C A5U U69C U74A	0.58
A2C A13C A15U U51C U54G U60C	0.12
A2C A13C U43A G52A A77U U80C	1.22
A2C A15G A20U U72C	0.14
A2C A15G U41A U43C A64G	0.1
A2C A15U A18G A35U U41G U66A	0.07
A2C A15U C38U U78C	0.34

Variant	self-cleavage
A2C A18U A20G A28U	0.12
A2C A21C U25G U54A G63U	0.45
A2C C11A U69C	0.3
A2C C11U G30A U54C A65G U78C	0.05
A2C C12A U25C A56G U72C U80C	0.36
A2C C23U A28G U41A U60C	0.2
A2C C39A A57G	0.08
A2C G8A A35G U72C U74G	0.35
A2C U25C U49A G53A C62U	0.33
A2C U26C G70A	0.28
A2C U26C U43A U80A	0.5
A2C U43C G52A	0.81
A2C U67A U72A	0.22
A2G A3G A5U A13U A21G	0.41
A2G A3G A5U U26C U48A U72C	0.26
A2G A3G A13U U31A U78C	0.68
A2G A3G A18G C39A U43A	0.6
A2G A3G A18G U26C	0.64
A2G A3G A28G U41C U48C	0.47
A2G A3G A64G	0.73
A2G A3G C39U	0.74
A2G A3G G46A	0.5
A2G A3G U26C A28C U72A	0.18
A2G A3U C11G U51A A56G U76A	0.22

Variant	self-cleavage
A2G A3U G9A G24A C62U	0.23
A2G A5C U41C	0.62
A2G A5G A13G A28G U51G	0.56
A2G A5G A20U U26C	0.14
A2G A5G A21C A28G	0.21
A2G A5G A21G U25G U66C U80C	0.12
A2G A5G C29U A56G	0.35
A2G A5G C32A U60C A77G	0.3
A2G A5G C40U U41G U43A U66C	0.12
A2G A5G U31A U54C	0.14
A2G A5U A18G U49A	0.11
A2G A5U A21G U26A U54C	0.39
A2G A5U A47G	0.95
A2G A5U C29A U60A U66A U74C	0.27
A2G A5U G6A G8U A15G U41C A56G	0.35
A2G A5U G46U U60C A65U	0.09
A2G A5U U25C A28U G63U C68A	0.12
A2G A5U U26C U41C U74C	0.74
A2G A5U U31A C39U	0.39
A2G A13G A28C A56U	0.38
A2G A13G A28G A75U	0.19
A2G A13G C29G A77U	0.26
A2G A13G U80A	0.8
A2G A13U A15G A20G A45G U76A	0.06

Variant	self-cleavage
A2G A13U A20G U49C U67C	0.14
A2G A13U U31C A64U A65G U69C	0.27
A2G A13U U41C	0.63
A2G A13U U43A U58C U66C	0.13
A2G A13U U78C	0.69
A2G A15C U60C	0.25
A2G A15G A18G A45G	0.44
A2G A15G A21G U66C A75C U78C	0.67
A2G A15G A35U A45G U78C	0.11
A2G A15G A56G	0.48
A2G A15G G63U U76C	0.73
A2G A15U A20G A28U	0.5
A2G A15U A20G G42A A45G U49A U60A	0.04
A2G A15U C17U A45C	0.3
A2G A18C U49C	0.1
A2G A18G A35U	0.11
A2G A18G A56G A57G U72C	0.34
A2G A18G U69A	0.26
A2G A18U A21G A28C U60C A64G	0.2
A2G A18U A28G	0
A2G A18U A28U U58C A65U	0.22
A2G A18U C23U U54A U69C	0.22
A2G A20C U80C	0.43
